Test results as given in PubChem BioAssay AID1458 (National Center for Advancing Translational Sciences (NCATS), 2008).
The campaign covered roughly 210,000 compounds. About 5,900 (2.8%) were called active. Inconclusive results, whose numbers are uncertain, are shown with a selection of clear calls. Calls follow the shape of the dose curve; as a rule, active = well fitted activation curve with a large enough effect; inconclusive = small, poorly fitted or top-dose-only effect; inactive = no such curve, though single readings can be large or run the other way. Where the call is inconclusive, the potency comes from a doubtful curve fit.

Experiment: qHTS Assay for Enhancers of SMN2 Splice Variant Expression; also: nearly all actives have a fitted effect of over 55% in size; as to activity change, positive = activation: % of control where 0% means no effect
Conditions: HEK293 SMN2-luciferase splicing reporter, luminescence, 30-36 h; activity change, positive = activation: at 46.1 µM (top of the series)
Summary of the method: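 HEK293 cells carry an SMN2 […]–luciferase reporter in which exon 7 inclusion puts luciferase in frame. Cells were plated 10-12 h before compound addition, then incubated 30-36 h at 37C. ONE-Glo luminescence was read; sodium butyrate at 4.5 mM final served as control.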
Potency is read from the fitted curve at half-maximal effect; tags tell the direction and shape of the fitted curve.

| Structure (SMILES) | Potency | activity change, positive = activation |
| --- | --- | --- |
| COc1ccc(CCN(Cc2cc3cccc(C)c3[nH]c2=O)C(=O)N2CCCC2)cc1OC | inconclusive: 7.94 µM [activator, partial curve, poor fit] | – |
| CCOC(=O)NN1C(=O)c2ccccc2NC1c1ccc(OC)cc1OC (stereo not given) | – | inactive: -15% |
| COc1ccc(-c2cc(CNC(C)=O)on2)cc1 | inconclusive: 0.0398 µM [activator, full curve, poor fit] | – |
| O=c1cnn([C@@H]2O[C@H](CO)[C@@H](O)[C@H]2O)c(=O)[nH]1 | active: 2 µM | – |
| S=C(Nc1ccc(Nc2ccccc2)cc1)Nc1ccccn1 | – | inactive: -68.4% |
| CCN=c1scc(C)n1/N=C/c1cc(Br)c(O)c(OC)c1 | inconclusive: 35.5 µM [activator, single point] | – |
| COc1cc(/C=N/n2c(C)n[nH]c2=S)ccc1OCc1ccc(F)cc1 | inconclusive: 10 µM [activator, partial curve, poor fit] | – |
| O=c1c2ccccc2nc2c3ccccc3cnn12 | inconclusive: 28.2 µM [activator, single point] | – |
| CCCCc1ccc(NC(=S)N2CCC(O)CC2)cc1 | – | inactive: -6.25% |
| CS(=O)(=O)N(CC(=O)NCCSC1CCCCC1)c1ccc2c(c1)OCO2 | – | inactive: 4.68% |
| O=C(Oc1ccc(/C=N/Nc2ccccc2)cc1)c1ccccc1 | – | inactive: -16.7% |
| c1ccc(C2Oc3ccccc3C3CC(c4cccs4)=NN32)cc1 (stereo not given) | inconclusive: 0.112 µM [activator, full curve, poor fit] | – |
| c1ccc2sc(N3CCOCC3)nc2c1 | inconclusive: 5.01 µM [activator, partial curve] | – |
| CCCC(=O)N1CCN(c2ccc(NC(=O)c3cc4ccccc4o3)cc2Cl)CC1 | – | inactive: -77.5% |
| COC(=O)c1nc(NC(=O)c2ccccc2Cl)n[nH]1 | inconclusive: 5.62 µM [activator, partial curve] | – |
| O=C(CN1N=C(c2ccccc2)CCC1=O)NCc1cccs1 | – | inactive: 23.2% |
| COc1cccc(NC(=O)Nc2nnc(N3CCCCC3C)s2)c1 (stereo not given) | inconclusive: 0.355 µM [activator, partial curve, poor fit] | – |
| Cc1ccc2cc(C3CC(c4ccco4)=NN3S(=O)(=O)c3ccccc3)c(Cl)nc2c1 (stereo not given) | active: 31.6 µM | – |
| Cc1ccc(NC(=O)Cn2nc(Cc3ccncc3)c3ccccc3c2=O)c(Cl)c1 | – | inactive: -11% |
| CCOc1ccc(NC(=O)c2oc3ccccc3c2NC(=O)c2ccc(OC)cc2OC)cc1 | – | inactive: 1.65% |
| O=C(O)C1CCCN1c1ncnc2ccccc12 (stereo not given) | inconclusive: 0.0008 µM [activator, full curve, poor fit] | – |
| COc1cc(C(C(=O)NC2CCCCC2)N(Cc2cccs2)C(=O)Cc2c[nH]c3ccccc23)cc(OC)c1OC (stereo not given) | – | inactive: -30.8% |
| CC(C)(C)NC(=O)C(c1ccncc1)N(C(=O)Cn1nnc(-c2cccs2)n1)C1CCCCC1 (stereo not given) | inconclusive: 3.98 µM [activator, single point] | – |
| COc1cc2c(cc1OC)-c1cc3cc(OC)c(OC)cc3c(=O)n1CC2 | – | inconclusive: 91.1% [activator] |
| Cc1cccc2c1-c1sc(C(=O)N(C)c3cccc(Cl)c3)cc1CO2 | – | inactive: -15.9% |

| Structure (SMILES) | Potency | activity change, positive = activation |
| --- | --- | --- |
| CCN=c1scc(-c2ccco2)n1/N=C/c1ccc(OC)c(O)c1 | inconclusive: 35.5 µM [activator, single point] | – |
| CCCC1C2C(=O)N(c3ccccc3OCC)C(=O)C2ON1c1ccccc1 (stereo not given) | – | inactive: 10.7% |
| CSc1ccc(CCNC(=O)CCc2c(C)nc3ncnn3c2C)cc1 | – | inactive: -5.37% |
| CCOC(=O)C1=C(C)N(C)C(C)=C(C(=O)OCC)C1c1cccnc1 | – | inactive: 10.9% |
| CC(=O)N(C)c1ccc(NC(=O)Nc2ccc(C)cc2)cc1 | inconclusive: 0.112 µM [activator, full curve, poor fit] | – |
| CCOc1ccccc1NS(=O)(=O)c1ccc2c(c1)oc(=O)n2C | – | inactive: -8.56% |
| COc1ccc(NC(=S)N2CCc3ccccc3C2)cc1 | inconclusive: 3.16 µM [activator, full curve] | – |
| COc1ccc(CNC(=O)c2ccc3c(c2)N(Cc2c(F)cccc2Cl)C(=O)CS3)cc1 | – | inactive: -43.5% |
| O=C(c1c(Cl)cccc1Cl)N1CCN(c2ccccn2)CC1 | inconclusive: 0.398 µM [activator, full curve, poor fit] | – |
| O=C(O)C(c1ccccc1)C(c1ccccc1)c1ccccc1 (stereo not given) | – | inactive: 16.1% |
| Cn1c(=O)c2sccc2n2c(CCC(=O)NCc3ccc(Cl)cc3)nnc12 | inconclusive: 5.62 µM [activator, single point] | – |
| C=CCc1ccc(OCc2ccc(C(=O)OC)o2)c(OC)c1 | inconclusive: 3.55 µM [activator, full curve] | – |
| CCOC(=O)N1CCc2c(sc3c2c(=O)n(-c2ccc(Cl)cc2)c(=O)n3CC(C)C)C1 | – | inactive: -10.8% |
| CCN(CC)c1ccc(C=C(c2nnnn2-c2ccc(C)cc2)c2nnnn2-c2ccc(C)cc2)cc1 | inconclusive: 35.5 µM [activator, single point] | – |
| CC(=O)Nc1cccc(C(=O)Nc2nc(C)cs2)c1 | – | inactive: 2.64% |
| CN(C)c1ccc(-c2cncnc2NCc2cccs2)cc1 | – | inactive: -13.3% |
| O=C(N/N=C/C=C/c1ccco1)c1cccs1 | inconclusive: 31.6 µM [activator, single point] | – |
| Cn1nnc(NC(=O)CSc2nnnn2-c2ccc(F)cc2)n1 | inconclusive: 7.94 µM [activator, full curve, poor fit] | – |
| Clc1cccc(N/N=C/c2ccncc2)c1 | inconclusive: 11.2 µM [activator, partial curve, poor fit] | – |
| C#CCn1c(=NC(=O)c2ccc(Br)s2)sc2cccc(OC)c21 | inconclusive: 11.2 µM [activator, partial curve] | – |
| CC(C)(C)NC(=O)NC(=O)COc1ccccc1C#N | inconclusive: 5.62 µM [activator, single point] | – |
| Cc1nc2nc(-c3ccc(Cl)cc3)nn2c(C)c1Cl | inconclusive: 15.8 µM [activator, single point] | – |
| Cc1cc(Cl)ccc1OCC(=O)NNC(=O)C1CCCO1 (stereo not given) | – | inactive: -12.8% |
| COC(C(=O)Nc1c(F)cccc1F)c1ccccc1 (stereo not given) | – | inactive: -4.37% |
| O=C(Nc1ccccc1)OCCOc1ccccc1 | inconclusive: 17.8 µM [activator, single point] | – |
